PubChem BioAssay AID504332 (National Center for Advancing Translational Sciences (NCATS), 2011)
Hit rate of the full screen: of about 350,000 compounds, about 31,000 (8.9%) were called active. The inconclusive results got no clear call from the source; some entries with a clear call stand among them for comparison. Calls come from the whole dose curve; as a rule, active = well fitted inhibition curve with a large enough effect; inconclusive = small, poorly fitted or top-dose-only effect; inactive = no such curve, though single readings can be large or run the other way. Potencies of inconclusive entries are doubtful fits and often do not repeat. Some structures have more than one record in an assay (separate samples or runs), and their calls can disagree.

What follows are compounds tested against Histone-lysine N-methyltransferase EHMT2 (Homo sapiens) (UniProt Q96KQ7) (assay: qHTS Assay for Inhibitors of Histone Lysine Methyltransferase G9a). Settings: G9a H3K9 monomethylation, AlphaScreen, 2 h; activity, negative = inhibition: at 59 µM (top of the series) unless noted.
How it was run: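 Chemiluminescent proximity detection of H3K9 monomethylation, read after 10 min bead incubation in the dark. Reaction: 20 nM G9a, 500 nM biotin-H3K9 peptide, 20 uM SAM cofactor, 2 h, room temperature, following 15 min enzyme-compound preincubation.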
% is set by controls: 0 for no effect and ±100 for the full control effect; potency is the fitted concentration of half-maximal effect; tags give direction and shape of the fitted curve.
Note: nearly all actives have a fitted effect of over 75% in size.

Chain of UniProt Q96KQ7 (Q96KQ7 whole entry, looked up): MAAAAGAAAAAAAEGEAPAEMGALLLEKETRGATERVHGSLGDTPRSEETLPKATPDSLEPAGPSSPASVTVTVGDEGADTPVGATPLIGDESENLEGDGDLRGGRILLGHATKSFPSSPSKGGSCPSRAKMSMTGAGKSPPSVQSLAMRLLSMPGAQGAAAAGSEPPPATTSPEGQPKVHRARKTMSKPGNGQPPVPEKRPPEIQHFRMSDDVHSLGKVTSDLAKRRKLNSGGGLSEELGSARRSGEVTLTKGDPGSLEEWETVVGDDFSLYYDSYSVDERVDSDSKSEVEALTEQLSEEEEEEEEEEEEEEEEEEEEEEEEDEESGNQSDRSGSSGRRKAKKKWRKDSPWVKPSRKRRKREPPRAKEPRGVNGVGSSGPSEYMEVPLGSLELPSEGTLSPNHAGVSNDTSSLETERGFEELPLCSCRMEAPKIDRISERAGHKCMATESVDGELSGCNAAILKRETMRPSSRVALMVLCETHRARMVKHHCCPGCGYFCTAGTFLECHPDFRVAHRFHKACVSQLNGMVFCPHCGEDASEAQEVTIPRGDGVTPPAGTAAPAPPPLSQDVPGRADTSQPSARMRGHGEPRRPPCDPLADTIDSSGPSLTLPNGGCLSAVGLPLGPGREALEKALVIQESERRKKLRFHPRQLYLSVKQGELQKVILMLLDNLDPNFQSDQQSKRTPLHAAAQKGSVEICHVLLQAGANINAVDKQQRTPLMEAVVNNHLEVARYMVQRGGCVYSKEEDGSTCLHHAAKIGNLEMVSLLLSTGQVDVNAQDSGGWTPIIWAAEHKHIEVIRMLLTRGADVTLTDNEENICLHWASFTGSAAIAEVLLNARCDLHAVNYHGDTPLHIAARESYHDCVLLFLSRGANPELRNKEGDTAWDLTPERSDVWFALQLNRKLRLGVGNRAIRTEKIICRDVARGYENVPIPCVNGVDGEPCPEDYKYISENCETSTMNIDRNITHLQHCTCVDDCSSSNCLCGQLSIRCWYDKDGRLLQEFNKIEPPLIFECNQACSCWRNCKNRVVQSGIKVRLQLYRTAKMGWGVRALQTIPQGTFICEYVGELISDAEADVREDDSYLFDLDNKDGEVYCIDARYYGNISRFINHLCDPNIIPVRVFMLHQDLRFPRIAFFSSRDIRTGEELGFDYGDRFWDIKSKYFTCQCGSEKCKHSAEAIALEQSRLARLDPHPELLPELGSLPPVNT

Row | SMILES | Potency | activity, negative = inhibition
1 | COc1ccc(CN2CCCC(C(=O)c3cccc(C(F)(F)F)c3)C2)cc1O (stereo not given) | inconclusive: 31.6 µM [inhibitor, partial curve, poor fit] | 
2 | CCSc1nc2sc3c(c2c2[n+]1CC(CBr)O2)CCCC3 (stereo not given) | active: 25.1 µM | 
3 | CCCN1C/C(=C/c2cccc([N+](=O)[O-])c2)C(=O)/C(=C/c2cccc([N+](=O)[O-])c2)C1 | inconclusive: 50.1 µM [inhibitor, partial curve, poor fit] | 
4 | COc1cccc(N2C(=O)CC(N3CCC(c4nc5ccccc5[nH]4)CC3)C2=O)c1 (stereo not given) | inconclusive: 22.4 µM [inhibitor, single point] | 
5 | COc1ccc(C2CC(c3ccccc3)=NN2c2ccc(N)cc2)cc1 (stereo not given) | active: 44.7 µM | 
6 | COc1cccc(CNC2CCCc3ccccc32)c1OC (stereo not given) | active: 39.8 µM | 
7 | C=C(C)C(=O)Nc1cccc(C2=NOC3(C2)C[C@@H](C(N)=O)N(C(=O)c2cc([N+](=O)[O-])cc([N+](=O)[O-])c2)C3)c1 (stereo not given in full) | inconclusive: 39.8 µM [inhibitor, single point] | 
8 | CCc1ccc(-n2c(=O)c3c(C)c(C(=O)N(C)C)sc3n(CC(=O)Nc3cc(Cl)ccc3C)c2=O)cc1 | inconclusive: 0.891 µM [inhibitor, full curve, poor fit] | 
9 | CC(NCc1cccs1)C(=O)NC1CCCCC1 (stereo not given) |  | inconclusive: -54.3% [inhibitor] [at 12.7 µM]
10 | Cc1ccc(N2C(=O)C3C4C=CC(CNC(=S)N5CCN(c6cccc(C)c6)C(C)C5)(O4)C3C2=O)cc1 (stereo not given) | active: 2 µM | 
11 | O=C(c1ccco1)C(O)c1ccco1 (stereo not given) | active: 50.1 µM | 
12 | COc1ccccc1NC(=O)C1=C(C)Nc2nc(-c3ccco3)nn2C1c1cccc(C)c1 (stereo not given) | inactive | 
13 | CC(OC(=O)Cn1[nH]c(=O)c2ccccc2c1=O)C(=O)Nc1ccc(F)cc1 (stereo not given) |  | inactive: 14% [at 0.501 µM]
14 | OB(O)O | inactive | 
15 | OCC(CO)(CO)NCc1ccc(-c2ccccc2)cc1 | inconclusive: 89.1 µM [inhibitor, single point] | 
16 | Cc1ccnc2nc(C(=O)Nc3nnc(-c4ccccc4)o3)nn12 | inconclusive: 7.08 µM [inhibitor, partial curve, poor fit] | 
17 | Fc1ccc(CSc2ccc3nnc(-c4cccs4)n3n2)cc1 | inconclusive: 31.6 µM [inhibitor, single point] | 
18 | CC(C)N(C)S(=O)(=O)c1ccc(NC(=O)C2=COCCO2)cc1 | inconclusive: 3.16 µM [inhibitor, single point] | 
19 | O=C(O)CCSCCCN1C(=O)c2cccc3cccc(c23)C1=O | inactive | 
20 | CCCCCCC(=O)N/N=C/c1ccco1 | inactive | 
21 | O=c1[nH]cnc(O)c1C(c1ccc(F)cc1)c1c(O)nc[nH]c1=O | inconclusive: 100 µM [inhibitor, single point] | 
22 | CC(C)(C)OC(=O)N1CCC(c2c(C(=O)NCc3ccco3)cnn2-c2ccc(F)cc2F)CC1 | inactive | 
23 | CCOc1cc(/C=C2\CN(C)C/C(=C\c3ccc(O)c(OCC)c3)C2=O)ccc1O | active: 35.5 µM | 

Row | SMILES | Potency | activity, negative = inhibition
24 | CCN1CCN(CCNC(=O)c2ccc(/C=C3/Sc4ccccc4N(Cc4cccc(C)c4)C3=O)cc2)CC1 | active: 44.7 µM | 
25 | CCC(=O)Nc1ccc(C)cc1-c1nc2ccccc2n(CC(=O)c2ccc(C)cc2)c1=O | inconclusive: 39.8 µM [inhibitor, partial curve, poor fit] | 
26 | O=C(COC(=O)c1cc(=O)[nH]c(=O)[nH]1)NCc1ccccc1 | inconclusive: 79.4 µM [inhibitor, single point] | 
27 | CCc1nnc(NS(=O)(=O)c2ccc(N3C(=O)c4ccc(C(=O)O)cc4C3=O)cc2)s1 | inconclusive: 79.4 µM [inhibitor, single point] | 
28 | O=C(O)[C@@H]1CSC2(CCSC2)N1 (stereo not given in full) | inconclusive: 31.6 µM [inhibitor, single point] | 
29 | Cc1[nH]c(=O)[nH]c(=O)c1/C=N/NC(=O)[C@@H](N)CC(C)C | inconclusive: 15.8 µM [inhibitor, partial curve, poor fit] | 
30 | Cc1ccc(S(=O)(=O)/N=C(/NC(=S)Nc2cccc(C)c2)c2ccccc2)cc1 | inconclusive: 17.8 µM [inhibitor, single point] | 
31 | COC(=O)c1cc(Br)c(=O)n(-c2cccc(F)c2)c1 |  | inactive: 6.15% [at 0.501 µM]
32 | CC(=O)N1CCN(CC(C)(C)NS(=O)(=O)c2ccc(C)cc2)CC1 | inconclusive: 28.2 µM [inhibitor, partial curve, poor fit] | 
33 | CCOc1ccc(NC(c2ccccn2)c2oc(CO)cc(=O)c2O)cc1 (stereo not given) | active: 1.41 µM | 
34 | Cc1c(C(=O)c2ccccc2)c2ccccn2c1CCc1ccccn1 | active: 39.8 µM | 
35 | OCCN(Cc1ccccc1)C(=S)Nc1ccc(F)cc1 | inactive | 
36 | COc1ccccc1CNC(=O)CN1C(=O)c2ccc([N+](=O)[O-])cc2C1=O | inconclusive: 39.8 µM [inhibitor, partial curve] | 
37 | CS(=O)(=O)c1ncc(N(Cc2ccco2)Cc2cccs2)c(C(=O)Nc2ccccc2F)n1 | inconclusive: 28.2 µM [inhibitor, partial curve, poor fit] | 
38 | O=C(COc1ccc([N+](=O)[O-])cc1)Nc1cc(S(=O)(=O)N2CCCCC2)ccc1N1CCCCC1 | active: 1.78 µM | 
39 | CCCCCCCCCCCCCCCC[N+](C)(C)CC | active: 14.1 µM | 
40 | CCc1ccc2c(c1)C1(NN=C(c3ccccc3)S1)C(=O)N2 (stereo not given) | inconclusive: 10 µM [inhibitor, partial curve, poor fit] | 
41 | COc1ccc(C(=O)Nc2nncs2)cc1S(=O)(=O)N1CCOCC1 | active: 56.2 µM | 
42 | Cc1ccc(-c2noc(-c3ccc(NC4CCCC4)c([N+](=O)[O-])c3)n2)cc1 | inactive | 
43 | CN(C(=O)c1ccccc1C(=O)OCC(=O)Nc1cccc(Br)c1)c1ccccc1 | inactive | 
44 | O=[N+]([O-])c1ccc(C(=S)N2CCN(Cc3ccccc3)CC2)cc1 | inconclusive: 25.1 µM [inhibitor, single point] | 
45 | O=C(NCC(c1ccco1)N1CCc2ccccc2C1)c1ccccc1 (stereo not given) | inactive | 
